Measurements from PubChem BioAssay AID1460 (National Center for Advancing Translational Sciences (NCATS), 2008).
The whole screen tested about 270,000 compounds, of which about 5,800 (2.1%) were called active. The inconclusive results got no clear call from the source; some entries with a clear call stand among them for comparison. Calls follow the shape of the dose curve; as a rule, active = well fitted inhibition curve with a large enough effect; inconclusive = small, poorly fitted or top-dose-only effect; inactive = flat fitted curve, though single readings scatter. A potency beside an inconclusive call is a rough fit, not a confirmed value.

biological target: Microtubule-associated protein tau (Homo sapiens) (UniProt P10636); assay: qHTS for Inhibitors of Tau Fibril Formation, Thioflavin T Binding; conditions: recombinant tau K18 P301L (four-repeat tau fragment), heparin-induced fibrillization, ThT fluorescence; series mostly up to 57.4 µM; also: nearly all actives have a fitted effect of over 55% in size
Method in brief: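 Recombinant human tau K18 fragment […] carrying P301L, 15 uM unlabeled plus 0.24 uM Alexa 594-labeled, was fibrillized with 20 uM heparin in 100 mM sodium acetate pH 7 for 6 hr at 37 C; 30 uM ThT fluorescence read after 1 hr.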
Potency is read from the fitted curve at half-maximal effect; tags tell the direction and shape of the fitted curve.

Chain of UniProt P10636 (P10636 whole entry, looked up, the tested form may be a part): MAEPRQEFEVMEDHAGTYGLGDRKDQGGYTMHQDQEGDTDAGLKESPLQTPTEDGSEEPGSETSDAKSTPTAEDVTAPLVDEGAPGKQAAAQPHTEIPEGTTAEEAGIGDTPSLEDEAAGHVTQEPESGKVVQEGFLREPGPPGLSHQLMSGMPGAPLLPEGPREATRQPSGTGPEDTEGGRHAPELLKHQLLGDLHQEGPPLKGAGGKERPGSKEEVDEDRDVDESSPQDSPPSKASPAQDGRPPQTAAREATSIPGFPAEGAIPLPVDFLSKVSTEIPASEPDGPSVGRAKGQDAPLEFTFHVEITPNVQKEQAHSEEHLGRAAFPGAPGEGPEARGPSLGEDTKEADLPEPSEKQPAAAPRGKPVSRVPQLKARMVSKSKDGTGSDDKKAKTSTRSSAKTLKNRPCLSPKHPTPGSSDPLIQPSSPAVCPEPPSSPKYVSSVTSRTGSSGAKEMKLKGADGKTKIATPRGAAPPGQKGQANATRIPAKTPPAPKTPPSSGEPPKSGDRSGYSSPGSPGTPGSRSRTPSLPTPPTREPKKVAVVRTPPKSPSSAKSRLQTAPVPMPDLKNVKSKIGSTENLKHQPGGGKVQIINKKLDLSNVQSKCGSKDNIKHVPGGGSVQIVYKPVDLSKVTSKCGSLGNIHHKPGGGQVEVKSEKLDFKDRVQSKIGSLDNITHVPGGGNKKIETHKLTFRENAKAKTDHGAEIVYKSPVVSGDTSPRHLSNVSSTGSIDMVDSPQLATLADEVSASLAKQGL

Row | Compound | Potency
1 | COc1ccc(N=C2SC(C(=O)N3CCN(c4ccc([N+](=O)[O-])cc4)CC3)CC(=O)N2C)cc1 (centres undefined) | inconclusive: 3.55 µM [inhibitor, partial curve]
2 | CC[C@H](C)[C@H](NC(N)=O)C(=O)NCCc1ccc(Cl)cc1 | inactive
3 | COc1ccc2oc3ccc(OC)cc3c(=O)c2c1 | inconclusive: 28.2 µM [inhibitor, partial curve]
4 | O=C(NN=C1CCCC1)c1[nH]c2ccc(Br)cc2c1-c1ccccc1 | inconclusive: 28.2 µM [inhibitor, partial curve, poor fit]
5 | O=C(N/N=C/c1[nH]c2ccccc2c1Cl)c1cccc(Br)c1 | inconclusive: 4.47 µM [inhibitor, single point]
6 | Cc1cccc(/C=N/c2sc3c(c2C#N)CCN(Cc2ccccc2)C3)c1O | inconclusive: 14.1 µM [inhibitor, partial curve]
7 | O=C(NC(C(=O)c1ccccc1)N1CCOCC1)c1cccs1 (centres undefined) | inconclusive: 17.8 µM [inhibitor, single point]
8 | C=CCNc1nc(-c2c(C)nc3sccn23)cs1 | inconclusive: 25.1 µM [inhibitor, partial curve, poor fit]
9 | O=C(NCCc1ccc(Cl)cc1)c1ccc2c(c1)N(Cc1ccccc1)CCS2 | inconclusive: 35.5 µM [inhibitor, single point]
10 | O=C(Nc1ccc2oc(-c3cccnc3)nc2c1)c1ccc(-c2cccc(OC(F)(F)F)c2)o1 | inconclusive: 1.58 µM [inhibitor, full curve]
11 | COc1cccc(N2CCN(C(=O)c3ccc(CS(=O)c4cccc(Cl)c4)o3)CC2)c1 (centres undefined) | inactive
12 | COC(=O)c1ccc(OC(=O)CS(=O)c2ccccc2[N+](=O)[O-])cc1 (centres undefined) | inconclusive: 12.6 µM [inhibitor, partial curve]
13 | COc1ccc(N2CCN(C(=O)CSc3ccccc3)CC2)cc1 | inconclusive: 3.16 µM [inhibitor, partial curve, poor fit]
14 | CN1/C(=C\C(=O)COC(=O)c2ccccc2O)C(C)(C)c2ccccc21 | inconclusive: 10 µM [inhibitor, partial curve]
15 | Cc1ccc(C(=O)Nc2ccc(-c3csc(C)n3)cc2)cc1 | inconclusive: 1.58 µM [inhibitor, full curve, poor fit]
16 | Cc1onc(-c2ccccc2)c1C(=O)Nc1ccc(-c2nnc3n2CCCCC3)cc1 | inactive
17 | COc1ccc(/C=N/NC(=O)c2cccc([N+](=O)[O-])c2)cc1OS(=O)(=O)c1ccccc1 | inactive
18 | Cc1cc(C)c(C(=O)COC(=O)[C@H](C)Nc2ccc(C(F)(F)F)cc2[N+](=O)[O-])c(C)c1 | inconclusive: 8.91 µM [inhibitor, partial curve]
19 | Cn1nc(-c2ccc(Cl)cc2)c2cc(C(=O)N3CCN(c4ccccc4)CC3)sc21 | inconclusive: 0.708 µM [inhibitor, full curve, poor fit]
20 | COC(=O)c1ccc(CSc2nnc(NC(=O)C3CCCO3)s2)cc1 (centres undefined) | inconclusive: 5.62 µM [inhibitor, partial curve]
21 | CCCC(=O)NCCc1cc2ccc(OC)cc2[nH]c1=O | inactive
22 | CCCC(C)C(=O)Nc1nc(C)c(-c2csc(Nc3ccccc3OC)n2)s1 (centres undefined) | inconclusive: 14.1 µM [inhibitor, partial curve]
23 | O=C(c1ccccc1)C1CCN(c2ncccc2[N+](=O)[O-])CC1 | inconclusive: 17.8 µM [inhibitor, partial curve]

Row | Compound | Potency
24 | CCc1nnc(NC(=O)CSc2nc3c(C)cccc3[nH]2)s1 | inconclusive: 2.51 µM [inhibitor, full curve]
25 | CC(SC1=NCCS1)C(=O)Nc1nnc(-c2ccc(Br)cc2)s1 (centres undefined) | inconclusive: 10 µM [inhibitor, partial curve]
26 | CCOC(=O)c1cc(NC(=O)Nc2ccccn2)c(C)nc1C | inconclusive: 44.7 µM [inhibitor, single point]
27 | CCN(CC)CCCN(Cc1cc2cc(OC)ccc2[nH]c1=O)C(=O)Nc1ccc(F)cc1 | inactive
28 | CCCN1C(C(=O)c2ccccc2)=C(OC(=O)c2ccc(F)cc2)c2ccccc2S1(=O)=O | inconclusive: 3.55 µM [inhibitor, full curve]
29 | O=C(CC1SC(=O)N(c2ccccc2)C1=O)Nc1ccc(Cl)cc1 (centres undefined) | inconclusive: 12.6 µM [inhibitor, partial curve]
30 | CC1CCCCC1NC(=O)COC(=O)c1c2c(nc3ccccc13)/C(=C/c1ccco1)CC2 (centres undefined) | inconclusive: 15.8 µM [inhibitor, partial curve]
31 | COc1ccc(-c2nc(-c3cccc(C)c3)nc(N3CCN(C)CC3)c2C#N)cc1 | inactive
32 | CC(C)c1ccc(C2=CC(c3cccc(Cl)c3)n3ncnc3N2)cc1 (centres undefined) | inconclusive: 14.1 µM [inhibitor, single point]
33 | CCCc1nnc(NC(=O)c2ccc([N+](=O)[O-])cc2)s1 | inconclusive: 7.94 µM [inhibitor, partial curve]
34 | CCOc1ccccc1NC(=O)c1sc2nc3c(cc2c1N)CN(Cc1ccccc1)CC3 | inactive
35 | CCOc1ccc(N=C2NC(=O)S/C2=C\c2ccc(N(C)C)cc2)cc1 | active: 1.12 µM
36 | COc1cccc(-c2nn(-c3ccccc3)cc2/C=C(\C#N)C(=O)NCCCn2ccnc2)c1 | inconclusive: 35.5 µM [inhibitor, single point]
37 | O=[N+]([O-])c1cc(-c2nnc(N3CCOCC3)c3ccccc23)ccc1N1CCOCC1 | inconclusive: 31.6 µM [inhibitor, single point]
38 | COC(=O)c1nn2c(C(F)(F)F)cc(-c3ccc(Br)o3)nc2c1Br | inconclusive: 14.1 µM [inhibitor, partial curve]
39 | COc1ccc(Nc2nc(-c3cccs3)cs2)c(OC)c1 | active: 11.2 µM
40 | O=C(Nc1ccc(N2CCOCC2)cc1)c1ccccc1SCC(=O)N1CCCC1 | inactive
41 | CC(C)(C)Sc1ccc2nc3c(n2c1)CCCC3 | inactive
42 | COc1cccc2cc(C(=O)N3CCc4ccccc4C3)c(=O)oc12 | inactive
43 | Cc1ccc(/C=C/c2nnc(-c3ccc(C)cc3)o2)cc1 | inconclusive: 1.78 µM [inhibitor, full curve]
44 | O=C(COC(=O)c1ccc(Br)o1)Nc1ccc(S(=O)(=O)N2CCCC2)cc1 | inactive
45 | Cc1ccc(/C=C2/NC(=O)N(Cc3ccccc3)C2=O)s1 | inactive
46 | Cc1ccc(-c2cc(C(=O)NN)n[nH]2)o1 | inconclusive: 17.8 µM [inhibitor, partial curve]

Row | Compound | Potency
47 | Cc1ccc2[nH]c3c(c2c1)CN(C(=O)CN1CCN(c2ccccn2)CC1)CC3 | inconclusive: 28.2 µM [inhibitor, single point]
48 | O=C(ON=C1CCN(c2ccc([N+](=O)[O-])cc2)CC1)c1ccccc1 | inconclusive: 11.2 µM [inhibitor, partial curve]
49 | COc1cccc(Cc2nc3ccccc3nc2SCC(=O)N2CCCCC2C)c1 (centres undefined) | inactive
50 | CCn1c(=O)cc(SCC(=O)N2CCN(Cc3ccc4c(c3)OCO4)CC2)c2ccccc21 | inconclusive: 17.8 µM [inhibitor, partial curve]
51 | Cc1cc(SCC(=O)c2ccc(O)c(O)c2)n2nc(C)c(-c3ccccc3)c2n1 | inconclusive: 6.31 µM [inhibitor, partial curve]
52 | Cc1ccc(S(=O)(=O)/C(C#N)=C/c2c(N3CCCCC3)nc3ccccn3c2=O)cc1 | inactive
53 | CCc1nnc(NC(=O)c2nc(S(C)(=O)=O)ncc2Cl)s1 | inconclusive: 2.82 µM [inhibitor, full curve]
54 | CCOc1ccc(C(=O)c2ccc(O)c(O)c2O)cc1 | active: 22.4 µM
55 | CC(C(=O)NNS(=O)(=O)c1cccc(C(F)(F)F)c1)n1nnc(N2CCOCC2)n1 (centres undefined) | inactive
56 | CCn1c(C)nc2cc(C(=O)NNC(=S)Nc3ccccc3OC)ccc21 | inactive
57 | Cc1cccc(Cn2c(=O)n(CCCC(=O)NCc3ccco3)c(=O)c3ccccc32)c1 | inconclusive: 8.91 µM [inhibitor, partial curve]
58 | CC(=O)C1=C(C)OC(N)=C(C#N)C1c1cccnc1 (centres undefined) | inconclusive: 39.8 µM [inhibitor, single point]
59 | O=C(NCCc1ccccc1)C(=O)NCC(c1cccnc1)N1CCN(c2ccc(F)cc2)CC1 (centres undefined) | inconclusive: 35.5 µM [inhibitor, single point]
60 | CCC(=O)N1CCc2cc(CNC(=O)Nc3ccc(OC)cc3OC)ccc21 | inconclusive: 39.8 µM [inhibitor, single point]
61 | CCCc1cc(=O)[nH]c(SCc2ccccc2Cl)n1 | inconclusive: 44.7 µM [inhibitor, single point]
62 | O=[N+]([O-])c1ccc(Cl)cc1N1CCCC1 | inactive
63 | CC1CCC/C(=N/Nc2ccc([N+](=O)[O-])cc2[N+](=O)[O-])C1 (centres undefined) | inconclusive: 15.8 µM [inhibitor, partial curve]
64 | CCSCCc1nnc(NC(=O)Nc2cccc(C(F)(F)F)c2)s1 | inactive
65 | Cc1cccc(C(=O)NCC(c2ccc3c(c2)OCO3)N2CCOCC2)c1 (centres undefined) | inactive
66 | COc1ccccc1Nc1nc(C)cs1 | active: 22.4 µM
67 | COc1ccc(NC(=O)c2cnc(SCC(=O)Nc3nc4ccc(C)cc4s3)n(C)c2=O)cc1 | inconclusive: 12.6 µM [inhibitor, partial curve]
68 | CCCc1sc(N/N=C/c2ccccn2)nc1-c1ccc(Br)cc1 | inconclusive: 25.1 µM [inhibitor, partial curve]
69 | Oc1c(Cl)cc(Cl)cc1/C=N/NC(=S)NC1CC2C=CC1C2 (centres undefined) | inconclusive: 35.5 µM [inhibitor, single point]
